The supplement of paper PMC4967469

What follows are cell lines tested with CCCCCCCCCCCC1=C(O)C(=O)C=C(O)C1=O [Embelin] (assay: Viability of human cancer cell lines after 72 h of drug (GDSC screen)). Settings: top dose 32 µM; top dose inferred.
Method: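 Human cancer cell lines in 384-well plates, medium with 10% serum, drug for 72 h over a 256-fold dose range (nine 2-fold or five 4-fold steps up to the top dose). Adherent lines were fixed and stained with the nucleic acid dye Syto60, suspension lines read with resazurin; signal relative to control wells, capped at 0 and 100%. One two-parameter sigmoid per drug and line, fitted in a mixed model over all curves with the slope shared within a line.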
Cell Line SW837 (large intestine, adherent) has an AUC of 0.725 and an IC50 of 10.9 µM. In the case of SW872 (soft tissue, adherent), the AUC is reported as 0.779 and the IC50 is reported as 11.8 µM. For “SW900 (lung squamous cell carcinoma, adherent)”, the AUC was 0.813 and the IC50 was 20.9 µM. For SW948 (large intestine, adherent), the AUC was 0.929 and the IC50 was > 32 µM. For SW954 (urogenital system, adherent), the AUC was 0.78 and the IC50 was 13.3 µM. For SW962 (urogenital system, adherent), the AUC was 0.702 and the IC50 was 8.59 µM. SW982 (soft tissue, adherent) showed an AUC of 0.705 and an IC50 of 7.71 µM. Cell Line SW1088 (glioma, adherent) has an AUC of 0.776. In the case of “SW1271 (small cell lung carcinoma, adherent)”, the AUC is reported as 0.716 and the IC50 is reported as 9.09 µM. With SW1417 (large intestine, adherent) the AUC was 0.905 and the IC50 was > 32 µM. For SW1463 (large intestine, adherent), the AUC was 0.907 and the IC50 was > 32 µM. In the case of SW1573 (lung adenocarcinoma, adherent), the AUC is reported as 0.879 and the IC50 is reported as > 32 µM. SW1710 (bladder, adherent) gave an AUC of 0.777 and an IC50 of 13.3 µM. In the case of SW1783 (glioma, adherent), the AUC is reported as 0.774 and the IC50 is reported as 11.3 µM. In the case of SW1990 (pancreas, adherent), the AUC is reported as 0.699 and the IC50 is reported as 8.1 µM. Saos-2 (osteosarcoma, adherent) was tested, and the AUC was 0.626 and the IC50 was 5.15 µM. For SiHa (cervix, adherent), the AUC was 0.915 and the IC50 was > 32 µM. For T47D (breast, adherent), the AUC was 0.938 and the IC50 was > 32 µM. T84 (large intestine, adherent) showed an AUC of 0.767 and an IC50 of 12.1 µM. T98G (glioma, adherent) gave an AUC of 0.814 and an IC50 of 15.8 µM. T-24 (bladder, adherent) was tested, and the AUC was 0.94 and the IC50 was > 32 µM. T-T (oesophagus, adherent) showed an AUC of 0.702 and an IC50 of 7.4 µM. In the case of “TALL-1 (T-cell lymphoblastic leukaemia, suspension)”, the AUC is reported as 0.927 and the IC50 is reported as > 32 µM. In the case of TC-71 (Ewing sarcoma, adherent), the AUC is reported as 0.972 and the IC50 is reported as > 32 µM. TCCSUP (bladder, adherent) gave an AUC of 0.743 and an IC50 of 11.1 µM. TE-1 (oesophagus, adherent) showed an AUC of 0.833 and an IC50 of 28.7 µM. TE-5 (oesophagus, adherent) showed an AUC of 0.735 and an IC50 of 10.6 µM. With TE-6 (oesophagus, adherent) the AUC was 0.818 and the IC50 was 22.2 µM. TE-8 (oesophagus, adherent) showed an AUC of 0.782 and an IC50 of 14.4 µM. TE-9 (oesophagus, adherent) gave an AUC of 0.717. In the case of TE-10 (oesophagus, adherent), the AUC is reported as 0.773 and the IC50 is reported as 12.2 µM. TE-11 (oesophagus, adherent) was tested, and the AUC was 0.876 and the IC50 was 26.9 µM. For TE-12 (oesophagus, suspension), the AUC was 0.796 and the IC50 was 18.8 µM. TE-15 (oesophagus, suspension) showed an AUC of 0.738 and an IC50 of 10.6 µM. TE-441-T (rhabdomyosarcoma, adherent) was tested, and the AUC was 0.906 and the IC50 was > 32 µM. In the case of TGBC1TKB (biliary tract, adherent), the AUC is reported as 0.763 and the IC50 is reported as 11.5 µM. With TGBC11TKB (stomach, adherent) the AUC was 0.911 and the IC50 was > 32 µM. TGBC24TKB (biliary tract, adherent) showed an AUC of 0.865 and an IC50 of 25.3 µM. In the case of TGW (neuroblastoma, adherent), the AUC is reported as 0.723 and the IC50 is reported as 7.69 µM. With TK10 (kidney, adherent) the AUC was 0.856 and the IC50 was > 32 µM. TK (B-cell lymphoma, suspension) showed an AUC of 0.694 and an IC50 of 6.63 µM. TMK-1 (stomach, adherent) showed an AUC of 0.838 and an IC50 of 23.5 µM. In the case of TOV-21G (ovary, adherent), the AUC is reported as 0.929 and the IC50 is reported as > 32 µM. TOV-112D (ovary, adherent) was tested, and the AUC was 0.665 and the IC50 was 5.78 µM. TT2609-C02 (thyroid, adherent) was tested, and the AUC was 0.726 and the IC50 was 9.23 µM. In the case of TT (thyroid, adherent), the AUC is reported as 0.859 and the IC50 is reported as > 32 µM. With TUR (B-cell lymphoma, suspension) the AUC was 0.866 and the IC50 was 24.9 µM. Cell Line TYK-nu (ovary, adherent) has an AUC of 0.801 and an IC50 of 16.9 µM. With U031 (kidney, adherent) the AUC was 0.833 and the IC50 was 21.7 µM. With U251 (glioma, adherent) the AUC was 0.747 and the IC50 was 9.79 µM. With U-2-OS (osteosarcoma, adherent) the AUC was 0.972 and the IC50 was > 32 µM. U-87-MG (glioma, adherent) was tested, and the AUC was 0.877 and the IC50 was > 32 µM. In the case of U-118-MG (glioma, adherent), the AUC is reported as 0.857 and the IC50 is reported as > 32 µM. In the case of U-698-M (B-cell leukaemia, suspension), the AUC is reported as 0.819 and the IC50 is reported as 18.2 µM. For UACC-62 (melanoma, adherent), the AUC was 0.538 and the IC50 was 2.54 µM. In the case of UACC-257 (melanoma, adherent), the AUC is reported as 0.87 and the IC50 is reported as > 32 µM. For UACC-812 (breast, adherent), the AUC was 0.895 and the IC50 was > 32 µM. For UACC-893 (breast, adherent), the AUC was 0.844 and the IC50 was > 32 µM. UM-UC-3 (bladder, adherent) was tested, and the AUC was 0.768 and the IC50 was 11.3 µM. UMC-11 (lung carcinoid, adherent) gave an AUC of 0.772 and an IC50 of 11.1 µM. In the case of VA-ES-BJ (soft tissue, adherent), the AUC is reported as 0.749 and the IC50 is reported as 10.9 µM. VAL (B-cell lymphoma, suspension) showed an AUC of 0.851 and an IC50 of 24.6 µM. VCaP (prostate, adherent) gave an AUC of 0.827 and an IC50 of 20.6 µM. VM-CUB-1 (bladder, adherent) gave an AUC of 0.762 and an IC50 of 11.1 µM. With VMRC-MELG (melanoma, adherent) the AUC was 0.878 and the IC50 was > 32 µM. VMRC-RCW (kidney, adherent) was tested, and the AUC was 0.686 and the IC50 was 6.36 µM. VMRC-RCZ (kidney, adherent) showed an AUC of 0.738 and an IC50 of 10.9 µM. WIL2-NS (lymphoid neoplasm, suspension) showed an AUC of 0.685 and an IC50 of 5.87 µM. Cell Line WM35 (melanoma, adherent) has an AUC of 0.594 and an IC50 of 3.63 µM. WM278 (melanoma, adherent) gave an AUC of 0.745 and an IC50 of 11.1 µM. With WM793B (melanoma, adherent) the AUC was 0.696 and the IC50 was 7.6 µM. WM1552C (melanoma, adherent) was tested, and the AUC was 0.72 and the IC50 was 8.46 µM. WM-115 (melanoma, adherent) showed an AUC of 0.647 and an IC50 of 5.61 µM. WSU-DLCL2 (B-cell lymphoma, suspension) was tested, and the AUC was 0.99 and the IC50 was > 32 µM. For WSU-NHL (lymphoid neoplasm, suspension), the AUC was 0.809 and the IC50 was 14.3 µM. With YAPC (pancreas, adherent) the AUC was 0.951 and the IC50 was > 32 µM. YKG-1 (glioma, adherent) showed an AUC of 0.739 and an IC50 of 9.78 µM. Cell Line YT (lymphoid neoplasm, suspension) has an AUC of 0.753 and an IC50 of 9.26 µM. huH-1 (liver, adherent) showed an AUC of 0.82 and an IC50 of 24.3 µM. no-10 (glioma, adherent) gave an AUC of 0.776 and an IC50 of 15.8 µM. In the case of no-11 (glioma, adherent), the AUC is reported as 0.743 and the IC50 is reported as 12.1 µM.

IC50 is the fitted dose that halves viability relative to control wells, and lower means more sensitive; a limit (>, <) means that the fit lies beyond the doses tested. For AUC the same curve is integrated over the 256-fold range of doses and scaled to a fraction: 1 means no effect, lower means more sensitive. The top dose, if marked as inferred, was calculated from the reported fits.
